Assay results taken from PubChem BioAssay AID651820 (National Center for Advancing Translational Sciences (NCATS), 2012).
Hit rate of the full screen: of about 340,000 compounds, about 12,000 (3.5%) were called active. The shares of active, inactive and inconclusive entries below differ from those in the screen. Calls follow the shape of the dose curve; as a rule, active = well fitted inhibition curve with a large enough effect; inconclusive = small, poorly fitted or top-dose-only effect, or another doubt; inactive = no such curve, though single readings can be large or run the other way. No potency is given beside an inconclusive call; the fits are too rough.

Assay: qHTS Assay for Inhibitors of Hepatitis C Virus (HCV)
Conditions: Huh7.5.1 HCVcc-Cre (HCVcc is cell-culture hepatitis C virus) infection, luciferase reporter, 44 h; activity change, negative = inhibition: at 41.8 µM (top of the series) unless noted
How it was run: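 Whole-lifecycle infectious HCVcc-Cre system; cells 1,000/well, compound then virus (~0.5 moi) added 4 h after plating, 44 h culture. Luciferase read 15 sec following 15 min substrate incubation, room temp.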
% is scaled to controls: 0 for no effect and ±100 for the full control effect; potency is read from the fitted curve at half-maximal effect; tags tell the direction and shape of the fitted curve.

Compound	Potency	activity change, negative = inhibition
O=[N+]([O-])c1ccc(N/N=C2/CCCCC2c2ccccn2)cc1 (stereo not given)	inconclusive [inhibitor, single point]	
CC1=C(c2ccccc2)SC2=NCCN21	inconclusive [inhibitor, single point]	
CC(=O)Nc1cccc(Oc2cnc3ccccc3n2)c1		inactive: -23.3%
CCOC(=O)C1CCN(C(c2cccnc2)c2c(NC(=O)c3ccco3)sc(C)c2C)CC1 (stereo not given)	active: 6.31 µM	
COc1ccc(N(C)C(=O)c2cc3c(s2)-c2ccccc2OC3)c(OC)c1	inconclusive [inhibitor, single point]	
CCc1ccc2c(c1)C1(C(=O)N2)N2CCCC2C(C(=O)c2ccc3ccccc3c2)C12C(=O)Nc1ccccc12 (stereo not given)	inconclusive [inhibitor, single point]	
CC(=O)N1CCc2cc(S(=O)(=O)N3CCCCCC3)ccc21		inactive: -0.0087%
CN(C(=O)c1cccc(S(=O)(=O)N2CCOCC2)c1)c1c(N)n(Cc2ccccc2)c(=O)[nH]c1=O		inactive: -2.19%
COCC1CCN(C(=O)c2cc(COc3ccc4c(c3)CCCC4)on2)C1 (stereo not given)	inconclusive [inhibitor, single point]	
Cc1cc(=O)n(C)c(=O)n1CCCCCCOc1cccc([N+](=O)[O-])c1	active: 7.08 µM	
COc1cccc(C2=CC(c3ccccc3)n3nnnc3N2)c1 (stereo not given)		inactive: -6.15%
Cc1ccc(CN(Cc2cccnc2)C(=O)CN2C(=O)COc3ccccc32)o1		inactive: 1.29%
CCn1c(SCC(=O)c2ccc3ccccc3c2)nnc1-c1cccs1	inconclusive [inhibitor, partial curve]	
CSc1ccc(/C=N/n2nnnc2N)cc1		inactive: 13.6%
CN(C)S(=O)(=O)c1cccc(NC(=O)C(c2ccccc2)c2ccccc2)c1		inactive: 10.1%
CCOC(=O)c1c2n(c3c(NCc4ccccc4)ncnc13)CCCC2	active: 5.01 µM	
O=C(Nc1ccc(F)c(Cl)c1)N1CCCCCC1		inactive: 15.9%
O=C(Nc1ccc(N2CCCCC2)cc1)c1ccc([N+](=O)[O-])o1	inconclusive [inhibitor, single point]	
CCO[C@@H]1OC(C(=O)N2CCN(C)CC2)=C[C@H](c2csc3ccccc23)[C@H]1CCCO		inactive: 5.16%
COC(=O)CSc1nc(N)c(C#N)c(C(C)C)c1C#N		inactive: -8.52%
CCn1ccnc1CN1CCCC(C(=O)c2cc(C)c(OC)c(C)c2)C1 (stereo not given)	inconclusive [inhibitor, partial curve]	
COc1ccccc1C(=O)NCCC(=O)N1CCCC(C)C1 (stereo not given)		inactive: 6.34%
COc1cc(NC(=O)CN(c2ccc(C)cc2)S(=O)(=O)c2c(C)noc2C)cc(OC)c1	inconclusive [inhibitor, single point]	
O=C(Nc1cccc(O)c1)c1cccc(NC(=O)c2cccs2)c1		inactive: -29.2%
Cc1ccc(NC(=O)/C=C\C(=O)O)c([N+](=O)[O-])c1		inactive: -4.1%

Compound	Potency	activity change, negative = inhibition
O=C(O)COc1ccccc1/C=N/NC(=O)c1cc(-c2ccccc2)nc2ccccc12		inactive: 12.4%
COc1ccc(OC)c2c1CCC2=O	inconclusive [inhibitor, partial curve]	
O=C(CCc1ccccc1)Nc1ccccc1[N+](=O)[O-]	inconclusive [inhibitor, single point]	
Cc1c(Cl)cccc1NC(=O)CCC(=O)c1cccs1		inactive: 27.1%
O=C(NCc1ccccc1)c1ccc(Oc2ccc(C(=O)NCc3ccccc3)cc2)cc1		inactive: -13.7%
Cc1[nH]c2ccccc2c1/C=N/NC(=O)c1cc(C(C)(C)C)[nH]n1	inconclusive [inhibitor, single point]	
COc1cc(C(=O)Nc2nc3ccccc3s2)ccc1OCc1c(C)noc1C	inconclusive [inhibitor, partial curve]	
O=C(CCN1C(=O)c2ccccc2C1=O)N1CCC(c2ccccc2)C1 (stereo not given)		inactive: 6.8%
CC(=O)c1c(C)[nH]c(C(=O)NNC(=O)COc2ccc(Cl)cc2C)c1C	inconclusive [inhibitor, full curve, poor fit]	
COc1ccc(-c2oc3ccc(N4CCOCC4)cc3c2C#CC2(O)CCCCC2)cc1	active: 10 µM	
O=[N+]([O-])c1cnc(Sc2ccncn2)s1	active: 7.08 µM	
CCCOc1ccc(/C=N/NC(=O)C2CC2)c(OCCC)c1	inconclusive [inhibitor, partial curve]	
O=C(Nc1ccccc1C(=O)N1CCCCC1)C1CCCCC1		inactive: 0.914%
CSc1ccc(CCNC(=O)c2nn(C)c3c2CS(=O)(=O)c2ccccc2-3)cc1	inconclusive [inhibitor, partial curve]	
CCOC(=O)N1CCC(NC(=O)c2ccc3c(c2)N(C)C(=O)/C(=C/c2cccc(OC)c2)S3)CC1	active: 3.16 µM	
O=C1OC(Cc2ccccc2)C(c2ccccc2)C1=O (stereo not given)		inactive: 25.4%
S=C(NCC1CCCO1)Nc1ccc(Nc2ccccc2)cc1 (stereo not given)	inconclusive [inhibitor, partial curve]	
Cc1nn(-c2ccccc2)c2sc(C(=O)N3CCCCC3)cc12	inconclusive [inhibitor, single point]	
CC[C@]12c3[nH]c4ccc(Cl)cc4c3CCN1C(=O)[C@@H](CC(=O)NCCCOC)C[C@@H]2C(=O)N1CCN(C(=O)c2ccco2)CC1		inactive: 12.8%
CC(C)C[C@H](NC(=O)c1nc[nH]c1C(=O)N[C@@H](CC(C)C)C(=O)OC(C)(C)C)C(=O)OC(C)(C)C	inconclusive [inhibitor, full curve]	
Cn1c(CN2CCCCC2)nc2cc(NC(=O)c3ccc(Cl)cc3)ccc21	active: 3.98 µM	
Cc1ccc(-n2c(C)cc(C3N=C(N)Nc4nc5ccccc5n43)c2C)c(C)c1 (stereo not given)	inconclusive [inhibitor, partial curve]	
c1cc2c(cc1-c1cnc3n1CCC3)OCCO2	active: 10 µM	
Cc1ccc2nc(NC(=O)CS(=O)(=O)Cc3ccccc3)sc2c1		inactive: 5.99%
CC(C)c1ccccc1NC(=O)COC(=O)c1c2c(nc3ccccc13)CCN(Cc1ccccc1)C2	inconclusive [inhibitor, single point]	
